Reference: PubChem BioAssay AID1240 (Sanford-Burnham Center for Chemical Genomics, 2008)
In all, about 50,000 compounds went through this assay and about 800 (1.6%) showed an effect of 50% or more. The list shows a part of the results.

target: Bcl-2-like protein 10 (Homo sapiens) (UniProt Q9HD36); experiment: Phenotype converters, Bcl-B/TR3 peptide binding displacement, primary biochemical FP (AID 1240); conditions: GST-Bcl-B / FITC-TR3 peptide fluorescence polarization; stronger effect = higher value; compound at 3.75 mg/L;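 further: 0% = Bcl-B with tracer peptide and DMSO and 100% = tracer peptide lacking Bcl-B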
Chain of UniProt Q9HD36 (Q9HD36 whole entry, looked up): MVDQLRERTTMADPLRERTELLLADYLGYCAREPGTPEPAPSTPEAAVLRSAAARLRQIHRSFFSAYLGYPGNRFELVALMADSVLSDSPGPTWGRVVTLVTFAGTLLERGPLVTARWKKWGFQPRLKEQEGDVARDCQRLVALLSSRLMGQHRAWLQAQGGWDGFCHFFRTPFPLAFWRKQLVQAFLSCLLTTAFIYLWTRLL

Structure (SMILES)	displacement
CCOc1ccc(C(=O)Nc2sc(C)c(C)c2C(N)=O)cc1	29.6%
Cc1cc(C)cc(N2C(=O)CC(Sc3ncn[nH]3)C2=O)c1 (configuration not stated)	-10.4%
CCOn1c(=O)c(=O)n(OCc2ccccc2)c2ccccc21	18.9%
COCCCNC(=O)COc1ccc(Br)c(C)c1	-6.7%
O=C(N/N=C\c1cccc(Cl)c1Cl)c1cnccn1	1.5%
O=C(/C=C/c1ccco1)Nc1ccc(Cl)cc1Cl	-14.6%
CCOC(=O)c1c(NC(=O)C(CC)Oc2ccccc2)sc(C(=O)N(CC)CC)c1C (configuration not stated)	-3%
CC(C)CCC1(C)NC(=S)N(c2ccc(Cl)cc2)N1 (configuration not stated)	-11.9%
CCc1ccccc1N(CC(=O)Nc1ccccc1C)S(C)(=O)=O	2.8%
CC(C)(O)C#Cc1ccc(C2C3=C(CC(C)(C)CC3=O)OC3=C2C(=O)CC(C)(C)C3)cc1	-7.4%
COc1ccc(/C=C/C(=O)Nc2ccc3nn(-c4ccc(F)cc4)nc3c2)cc1	11.5%
Cc1ccc(S(=O)(=O)N(CC(=O)N2CCN(c3ccccc3)CC2)c2ccccc2C)cc1	0.1%
CCOC(=O)C1=C(c2ccccc2)NC(=S)NC1c1ccccc1 (configuration not stated)	17.4%
O=C1c2cccc([N+](=O)[O-])c2C(=O)N1CC(=O)N1c2ccccc2Sc2ccc(C(F)(F)F)cc21	6.3%
O=C(Nc1ccc2c(c1)oc1ccccc12)c1ccc(Br)o1	19%
CCCCOC(=O)c1cccc(NC(=S)NC(=O)c2ccccc2Cl)c1	-2%
O=C(NCCCNc1ccc(C(F)(F)F)cc1[N+](=O)[O-])c1ccc(Cl)cc1	-8%
Cc1ccc2nsnc2c1NC(=O)COc1ccc(Br)cc1	22.3%
Cc1ccc(NC(=O)C(Cl)(Cl)C(=O)Nc2ccc(C)cc2)cc1	11.1%
CN(C)c1cccc(C(=O)Nc2cccc(Cl)c2)c1	7.8%
O=C(NCCC(=O)N1CCNC1=O)OCc1ccccc1	3.9%
CCC(Oc1ccccc1)C(=O)Nc1c(C)n(C)n(-c2ccccc2)c1=O (configuration not stated)	0.1%
COc1ccc(CN2CCN(C(=O)c3cccc(Cl)c3)CC2)cc1Br	-7.2%
O=C(CCN1C(=O)/C(=C/c2ccc(F)cc2)SC1=S)Nc1cc([N+](=O)[O-])ccc1O	25.6%

Structure (SMILES)	displacement
CC1=C(C(=O)Nc2cc(Cl)ccc2C)C(c2ccccc2Cl)NC(=S)N1 (configuration not stated)	6.1%
O=C(CC1Nc2ccccc2NC1=O)Nc1ccc(O)cc1 (configuration not stated)	12.6%
CCCCOc1cccc(C(=O)Nc2cccc(-c3nc4ncccc4o3)c2)c1	15.2%
Cc1cc(C=C2C(=O)NC(=O)NC2=O)c(C)n1-c1cccc([N+](=O)[O-])c1	5.2%
COc1ccc(Br)cc1CN1CCN(Cc2ccc3c(c2)OCO3)CC1	-7.3%
CC1CCCCN1CC#CC(O)(c1ccccc1)c1ccccc1 (configuration not stated)	-5.7%
CC1(c2ccccc2)CC(O)CC(c2ccccc2)N1 (configuration not stated)	13%
Cc1cc(NC(=O)c2ccc(C(C)(C)C)cc2)ccc1NC(=O)c1ccccc1	-10.3%
O=C(O)CCN1C(=O)/C(=C/c2ccccc2Cl)SC1=S	5.7%
CCCOc1ccc(/C=C/C(=O)Nc2c(C)cccc2C(C)C)cc1OC	-3.1%
CCOc1cc(/C=C2/SC(=S)N(CC)C2=O)cc(Br)c1OCCOc1cccc(OC)c1	92.3%
Cc1sc(NC(=O)c2ccc3c(c2)OCO3)c(C(N)=O)c1C	-3.3%
O=C1OC(/C=C/c2ccccc2)=NC/1=C/c1ccc(-c2ccc3c(c2)C(=O)NC3=O)o1	-8%
CCOC(=O)c1sc(NC(=O)CCOc2ccccc2)c(C(=O)OCC)c1C	2.2%
COc1ccc(/C=N/Nc2nc(N3CCOCC3)nc(N3CCOCC3)n2)cc1	7.7%
O=C1CC(c2ccccc2)Sc2nc3ccccc3n21 (configuration not stated)	4%
CNCC(=O)C12CC3CCC(CC(C3)C1)C2	-9.5%
O=C(O)c1ccc(CNC(=S)Nc2ccccc2)cc1	-7.9%
Fc1ccc(-c2noc(-c3ccccc3Cl)n2)cc1	-5.3%
Cc1cc(C)n(-c2nc(Nc3cccc(C(F)(F)F)c3)nc(-n3nc(C)cc3C)n2)n1	11.5%
O=C(NC(=S)Nc1ccc(I)cc1)c1ccco1	-1.7%
CCN1C(=O)/C(=C2\SC(=O)N(Cc3ccccc3)C2=O)c2ccccc21	-10.9%
COCCOC(=O)c1c(C)oc2ccc(OCC(=O)c3ccc(Br)cc3)cc12	11.3%
Cc1cc(C)c(C(=O)Nc2ccccc2C(N)=O)c(C)c1	7.3%

Structure (SMILES)	displacement
COc1ccccc1N(CC(=O)Nc1ccc(C(C)C)cc1)S(=O)(=O)c1ccccc1	4%
CC(NC(=O)CSc1ncccn1)c1ccccc1 (configuration not stated)	4.5%
C/C=N/Nc1nnc2c(n1)[nH]c1ccccc12	19%
COc1nc(NC(C)(C)C)nc(OC)n1	-9.8%
CC1=N/C(=C/c2ccc(OCc3ccc(Cl)cc3)cc2)C(=O)O1	11.8%
O=C(CCC1CCCCC1)NCCN1CCOCC1	0.5%
C/C(CC(O)c1ccc2ccccc2n1)=N\O (configuration not stated)	11.1%
Cc1cc(C)nc(SCC(=O)Nc2ccccc2Oc2ccccc2)n1	1%
Cn1cc(C=C2C(=O)NC(=S)NC2=O)c2ccccc21	8.8%
COCC(C)(C)NS(=O)(=O)c1ccccc1	7.1%
CSc1ccc(/C=C(/NC(=O)c2ccccc2)c2nc3ccccc3[nH]2)cc1	4.1%
O=C(Nc1ccc(Br)cc1)c1ccccc1[N+](=O)[O-]	7.3%
COc1ccc(NC(=O)c2cnccn2)c(OC)c1	44.1%
CCOC(=O)CCCSc1nc2sc(C)c(C)c2c(=O)[nH]1	-7.2%
Cc1cccc(C(=O)Nc2nc(-c3ccc(Br)cc3)cs2)c1	-7.4%
O=C(Nc1cccc(Cl)c1)Nc1nnc(Cc2ccc(Cl)cc2Cl)s1	18.3%
O=C(Nc1ccccc1[N+](=O)[O-])c1ccc(Br)o1	1.8%
CCOC(=O)c1ccc(N2C(=O)C=CC2=O)cc1	-9.6%
CC1=C(C(=O)OCc2ccccc2)C(c2ccccc2Cl)CC(=O)N1 (configuration not stated)	-8.8%
CCOc1ccc(NC(=O)c2sc3ccccc3c2Cl)c([N+](=O)[O-])c1	6.5%
N#C/C(=C(/O)C(Cl)(Cl)Cl)c1nc2ccccc2[nH]1	-5.5%
COc1ccc(/C=N/Nc2nc(-c3ccc(C)cc3)nc3ccccc23)c(OC)c1	17.3%
CCC1(C)CC(C(CCNCc2ccc(F)cc2)c2ccc(C)cc2)CCO1 (configuration not stated)	-6%
CCOc1ccc2cc(S(=O)(=O)n3ccnc3)ccc2c1	-1.3%
